# Data reported in PubChem BioAssay AID485294 (National Center for Advancing Translational Sciences (NCATS), 2010).
# Out of some 370,000 compounds screened, about 150 (0.041%) were called active. The inconclusive results got no clear call from the source; some entries with a clear call stand among them for comparison. The call rests on the fitted dose curve; in most records, active means well fitted inhibition curve with a large enough effect; inconclusive means small, poorly fitted or top-dose-only effect; inactive means flat fitted curve, though single readings scatter. No potency is given beside an inconclusive call; the fits are too rough.
# Biological target: Beta-lactamase (Escherichia coli (strain K12)) (UniProt P00811)
# UniProt P00811, sequence (P00811 whole entry, looked up): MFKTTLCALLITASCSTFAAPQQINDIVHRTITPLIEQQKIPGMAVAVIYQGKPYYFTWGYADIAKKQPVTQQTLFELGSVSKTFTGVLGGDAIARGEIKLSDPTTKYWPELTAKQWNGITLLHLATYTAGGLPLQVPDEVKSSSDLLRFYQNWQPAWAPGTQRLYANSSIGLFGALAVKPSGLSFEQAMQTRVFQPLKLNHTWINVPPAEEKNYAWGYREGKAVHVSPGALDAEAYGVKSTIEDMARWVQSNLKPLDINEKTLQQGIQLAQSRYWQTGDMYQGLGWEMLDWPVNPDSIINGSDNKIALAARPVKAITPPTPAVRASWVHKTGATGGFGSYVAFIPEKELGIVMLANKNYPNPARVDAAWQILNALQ
# Test: qHTS Inhibitors of AmpC Beta-Lactamase (assay with detergent); further: nearly all actives have a fitted effect of over 25% in size;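 on activity change, negative = inhibition: 0% = no-compound wells and -100% = no-enzyme wells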
# Settings: AmpC hydrolysis of nitrocefin, absorbance 480 nm, 0.01% Triton; activity change, negative = inhibition: at 114 µM (top of the series)
# Procedure, shortened: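 AmpC (5.3 nM in the dispensed reagent) in 20 mM phosphate pH 7.0 with 0.01% (detergent screen) or 0.0001% Triton X-100 was preincubated with compounds for 15 min at room temperature. Nitrocefin was then added from an 800 uM solution, and hydrolysis was followed at 480 nm.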
# Potency means the concentration at half of the fitted maximal effect; tags describe the fitted curve by direction and shape.
SMILES,Potency,"activity change, negative = inhibition"
CC(C)CN(C(=O)COC(=O)c1cnccn1)c1c(N)n(Cc2ccccc2)c(=O)[nH]c1=O,"inconclusive [inhibitor, single point]",–
CCNC(=O)CC1C(=O)N(c2ccc(C)cc2)C(=O)N1Cc1ccc(C)cc1 (configuration not stated),"inconclusive [inhibitor, single point]",–
COc1ccc(-n2nnnc2CNC(=O)c2ccc3ccccc3c2)cc1,"inconclusive [inhibitor, single point]",–
CCOc1ccccc1C(=O)N[C@H](C(=O)Nc1ccc(OC)c(S(=O)(=O)N2CCOCC2)c1)C(C)C,"inconclusive [inhibitor, full curve]",–
Cn1c(/C=C/c2ccccc2[N+](=O)[O-])nc2ccccc2c1=O,–,inactive: -11.1%
O=C(CSc1nnnn1C1CCCC1)Nc1cccc(NC(=O)c2ccco2)c1,"inconclusive [inhibitor, full curve]",–
CN(C)CCCOc1cccc(Cl)c1,"inconclusive [inhibitor, full curve, poor fit]",–
COc1cc(OC)c(-c2c3cc(O)c(=O)cc-3oc3cc(O)c(O)cc23)cc1OC,"inconclusive [inhibitor, full curve]",–
O=C(Nc1ccc(F)c(F)c1)c1cccnc1,"inconclusive [inhibitor, partial curve, poor fit]",–
Nn1c(SCC(=O)NCCC2=CCCCC2)nnc1C(F)(F)F,"inconclusive [inhibitor, full curve, poor fit]",–
CCCc1[nH]nc2c1C(C1CCCCC1)C(C#N)=C(N)O2 (configuration not stated),"inconclusive [inhibitor, full curve]",–
Cc1ccc(NC(=O)C(C)Oc2ccccc2)cc1S(=O)(=O)N1CCCCCC1 (configuration not stated),–,inactive: 0.782%
CCC(C)N(CCNC(=O)CC1Oc2ccc(C)cc2NC1=O)C1CCCCC1 (configuration not stated),"inconclusive [inhibitor, full curve, poor fit]",–
CCc1ccccc1NC(=O)COc1cccc2ccc(C)nc12,"inconclusive [inhibitor, partial curve]",–
CC(C)Cc1nc(N2CCN(C(=O)Cc3ccccc3)CC2)c(C#N)c2c1COC(C)(C)C2,"inconclusive [inhibitor, full curve, poor fit]",–
COc1ccc(-n2c(SCC#N)nc3c(sc(=S)n3-c3ccccc3)c2=O)c(OC)c1,"inconclusive [inhibitor, single point]",–
COc1ccc2nc(-n3c(C)ccc3C)sc2c1,"inconclusive [inhibitor, full curve]",–
CCc1cccc2c1NC(=O)C21N2CCCC2C(C(=O)c2ccc3ccccc3c2)C12C(=O)Nc1ccccc12 (configuration not stated),–,inactive: -9.82%
O=C(O)C1CCCCC1C(=O)NCCc1ccncc1 (configuration not stated),"inconclusive [inhibitor, full curve, poor fit]",–
Cc1c(CCC(=O)N2CCC(C(=O)O)CC2)c(=O)oc2cc3oc4c(c3cc12)CCCC4,"inconclusive [inhibitor, partial curve]",–
CC1C(=O)NN=C1C(=O)N/N=C\c1ccc(O)cc1O (configuration not stated),–,inactive: 2.1%
O=C1C(=Cc2ccc(Br)o2)C(=O)c2ccccc21,"inconclusive [inhibitor, full curve]",–
Cc1ccc(-n2nnnc2SCC(=O)Nc2ccc3c(c2)OCCO3)cc1C,"inconclusive [inhibitor, partial curve, poor fit]",–

SMILES,Potency,"activity change, negative = inhibition"
O=C(c1ccco1)N1CCN(S(=O)(=O)N2CCOCC2)CC1,"inconclusive [inhibitor, full curve, poor fit]",–
Cc1ccccc1NC(=S)N1CCN(Cc2ccccc2)CC1,–,inactive: -14.1%
Cc1cc(C)c(C#N)c(N2CCN(c3ccc(F)cc3)CC2)n1,"inconclusive [inhibitor, partial curve, poor fit]",–
C#CCOCCOCCOCCNc1nc(N2CCN(C(=O)Cn3cc(CCO)nn3)CC2)nc(N2CCN(C(=O)[C@H]([C@@H](C)O)n3cc(CCCCN)nn3)CC2)n1,"inconclusive [inhibitor, partial curve, poor fit]",–
CCc1ccc(OCC(=O)OC(C)C(=O)Nc2ccc(Cl)cn2)cc1 (configuration not stated),"inconclusive [inhibitor, full curve, poor fit]",–
O=C1CC(NS(=O)(=O)c2cccs2)CN1c1ccc(F)cc1 (configuration not stated),"inconclusive [inhibitor, partial curve, poor fit]",–
COC(=O)c1cc2oc(C)cc2n1CC(=O)Nc1ccc(C)cc1C,–,inactive: -2.87%
Cc1ccc(C(=O)NCC(=O)OCC(=O)/C=C2\N(C)c3ccccc3C2(C)C)cc1C,–,inactive: -6.24%
O=C(COC(=O)c1ccco1)c1ccc(F)cc1,"inconclusive [inhibitor, single point]",–
CCSc1nnc(N)s1,"inconclusive [inhibitor, full curve]",–
O=C(NNS(=O)(=O)c1ccc2ccccc2c1)c1cccs1,"inconclusive [inhibitor, partial curve]",–
COc1cc(NC(=O)Cn2c(C)cc3ccccc3c2=O)cc(OC)c1OC,inactive,–
Cc1ccc(NC(=O)C2(S(=O)(=O)c3ccc(Cl)cc3)CC2)c(Br)c1,"inconclusive [inhibitor, full curve, poor fit]",–
CC(=O)C1=C(O)C(=O)N(c2ccc(S(N)(=O)=O)cc2)C1c1ccccc1F (configuration not stated),"inconclusive [inhibitor, full curve, poor fit]",–
CCc1ccc(CNC(=O)CCN2C(=O)COc3ccccc32)cc1,–,inactive: -5.79%
Cc1cc(C)cc(NC(=O)Cn2nnc(C(=O)Nc3cc(C)cc(C)c3)c2N)c1,–,inactive: 0.812%
O=C(NCc1ccncc1)C1CCCCC1,"inconclusive [inhibitor, full curve]",–
COc1ccccc1-c1c(C)nn2c(C)cc(C)nc12,"inconclusive [inhibitor, full curve, poor fit]",–
CCCCCC(=O)N1CCN(CCN=CC2=C(O)CC(c3ccc(OC)c(OC)c3)CC2=O)CC1 (configuration not stated),–,inactive: -1.16%
COCC(=O)N1CCCC(C(=O)c2ccc(-c3ccccc3)cc2)C1 (configuration not stated),"inconclusive [inhibitor, full curve, poor fit]",–
CCS(=O)(=O)N1CC(=O)N(c2cccc(C)c2C)C(C)(C(=O)NC2CCCCC2)C1 (configuration not stated),–,inactive: 16.4%
COC(=O)c1ccc([C@@H](O)[C@H](C)C(=O)CC(=O)OC(C)(C)C)cc1,"inconclusive [inhibitor, full curve, poor fit]",–
O=C(Cn1cc([N+](=O)[O-])cn1)Nc1ccc(Cn2cc(Br)cn2)cc1,"inconclusive [inhibitor, full curve]",–

SMILES,Potency,"activity change, negative = inhibition"
Cc1csc(NC(=O)Cc2coc3cc(C)c(C(C)C)cc23)n1,"inconclusive [inhibitor, full curve, poor fit]",–
CC1(C)CC(=NNC(=O)c2n[nH]c3c2CCC3)CC(C)(C)N1,–,inactive: 0.748%
COC(=O)c1cc(C(=O)OC)cc(N2C(=O)CC(NNC(=O)c3ccccc3Br)C2=O)c1 (configuration not stated),"inconclusive [inhibitor, partial curve, poor fit]",–
COC(=O)c1cc2occc2n1Cc1ccc(Cl)cc1,"inconclusive [inhibitor, full curve, poor fit]",–
O=c1ccc(Oc2nc(N3CCCCC3)nc(N3CCCCC3)n2)n[nH]1,–,inactive: -14.3%
Cc1cc(NC(=O)CSc2nc3ccccc3c(=O)n2Cc2ccc(F)cc2)no1,–,inactive: -12.9%
CCCN(Cc1nnc(-c2ccccc2Cl)o1)C(=O)c1oc2ccccc2c1C,–,inactive: -10.9%
COCc1cc(C)nc2sc(C(=O)Nc3ccccc3F)c(N)c12,"inconclusive [inhibitor, full curve, poor fit]",–
Cc1cc(O)cc2c1C(=O)/C(=C/c1ccco1)O2,–,inactive: 9.53%
O=C(C1CCC1)N1CCN(S(=O)(=O)c2ccc([N+](=O)[O-])cc2)CC1,"inconclusive [inhibitor, full curve, poor fit]",–
CCOC(=O)C(=O)Nc1cc(C(=O)OC)cc(C(=O)OC)c1,"inconclusive [inhibitor, full curve]",–
CCN1CCN(c2cc(C)c3cc(NC(=S)NCCN(C)C)ccc3n2)CC1,–,inactive: -1.08%
CCN(CCO)C(=O)c1ccc2oc(Cc3ccc(Cl)cc3)nc2c1,"inconclusive [inhibitor, partial curve, poor fit]",–
Nc1nc2c(c(=O)[nH]1)CN(Cc1ccccc1)CC2,"inconclusive [inhibitor, full curve, poor fit]",–
Cc1ccc(S(=O)(=O)N/N=C/c2cc([N+](=O)[O-])ccc2O)cc1[N+](=O)[O-],"inconclusive [inhibitor, full curve]",–
Cc1ccc(CCNc2nc3c(S(=O)(=O)c4ccc(C)cc4)nnn3c3ccsc23)cc1,–,inactive: 10.6%
C=CCNC(=S)Nc1ccc(C)cc1[N+](=O)[O-],–,inactive: 0.524%
O=C(CSc1nnc(C2CCCCC2)n1Cc1ccccc1)NCc1ccco1,–,inactive: -12.2%
O=C(Nc1ccc(N2CCOCC2)c(C(=O)O)c1)c1ccco1,"inconclusive [inhibitor, full curve, poor fit]",–
CCOc1ccc(S(=O)(=O)N(C)CC(=O)NCc2ccccn2)cc1Cl,"inconclusive [inhibitor, full curve, poor fit]",–
Cc1cccc(N2CCCn3c2nc2c3c(=O)n(CCN3CCOCC3)c(=O)n2C)c1,"inconclusive [inhibitor, partial curve, poor fit]",–
